The other results are listed elsewhere or left out.

The target of the experiment is T1, MBP-FoxP1dN (Mus musculus, UniProt P58462 326-579).
T1 sequence: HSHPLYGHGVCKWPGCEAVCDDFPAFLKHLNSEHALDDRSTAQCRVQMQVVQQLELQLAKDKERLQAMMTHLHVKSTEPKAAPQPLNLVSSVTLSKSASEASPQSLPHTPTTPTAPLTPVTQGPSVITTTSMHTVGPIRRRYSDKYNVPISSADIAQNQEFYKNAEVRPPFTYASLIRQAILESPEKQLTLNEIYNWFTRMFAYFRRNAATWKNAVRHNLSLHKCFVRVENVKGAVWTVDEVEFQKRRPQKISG
Put plainly: PD-seq (MBP pull-down with sequencing); 20 mM Tris-HCl pH 7.5, 100 mM NaCl, 1.5 mM MgCl2, 0.4 uM protein, 0.1 uM dsDNA library, 30 min, room temperature, amylose pull-down; high values mean tight binding. The conditions noted are these: protein: recombinant; tags: His6-MBP; chain copies: 2; dsDNA, one strand shown. Put shortly: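 His6-MBP-tagged mouse FoxP3 or FoxP1 fragment lacking the N-terminus, expressed in E. coli, was mixed at 0.4 µM with 0.1 µM Klenow-filled double-stranded degenerate DNA library. Incubation was 30 min at room temperature in Tris pH 7.5 buffer with NaCl and MgCl2. Complexes were caught on amylose resin and washed three times; DNA was released with proteinase K, PCR-barcoded and Illumina-sequenced. Binding is reads-per-million enrichment, pull-down over input, with replicates pooled.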
As for “GATGATTGTTCTCCCAGCTGATGAATTCACGTATTCGAGTAAACAAATTTTCCTAATCTTTCTGTTCAAGCGCCATCTAC”, the binding signal was 1.09 RPM ratio (pull-down/input).
“GATGATTGTTCTCCCAGCTGATGAATTCACCTGGTCGAGTAAACAAATTTTCCTAATCTTTCTGTTCAAGCGCCATCTAC”: the binding signal is 0.796 RPM ratio (pull-down/input).
For “GATGATTGTTCTCCCAGCTGATGAATTTCAGGGGTCGAGTAAACAAATTTTCCTAATCTTTCTGTTCAAGCGCCATCTAC”, the binding signal was 0.746 RPM ratio (pull-down/input).
For “GATGATTGTTCTCCCAGCTGATGAATTAGCGCGGTCGAGTAAACAAATTTTCCTAATCTTTCTGTTCAAGCGCCATCTAC” the value was 0.806 RPM ratio (pull-down/input).
As to “GATGATTGTTCTCCCAGCTGATGAATTTAAAGGATCGAGTAAACAAATTTTCCTAATCTTTCTGTTCAAGCGCCATCTAC”, the binding signal is 0.866 RPM ratio (pull-down/input).
For the sequence “GATGATTGTTCTCCCAGCTGATGAATTATTAATGTCGAGTAAACAAATTTTCCTAATCTTTCTGTTCAAGCGCCATCTAC”, the binding signal was 1.35 RPM ratio (pull-down/input).
With “GATGATTGTTCTCCCAGCTGATGAATTTGGCAATTCGAGTAAACAAATTTTCCTAATCTTTCTGTTCAAGCGCCATCTAC”, the binding signal was 0.931 RPM ratio (pull-down/input).
For the sequence “GATGATTGTTCTCCCAGCTGATGAATTTAGGGCATCGAGTAAACAAATTTTCCTAATCTTTCTGTTCAAGCGCCATCTAC”, the binding signal is 1.04 RPM ratio (pull-down/input).
As to “GATGATTGTTCTCCCAGCTGATGAATTCGTTGAATCGAGTAAACAAATTTTCCTAATCTTTCTGTTCAAGCGCCATCTAC”, the binding signal was 0.916 RPM ratio (pull-down/input).
For the sequence “GATGATTGTTCTCCCAGCTGATGAATTCGAACAATCGAGTAAACAAATTTTCCTAATCTTTCTGTTCAAGCGCCATCTAC”, the binding signal was 1.12 RPM ratio (pull-down/input).
As to “GATGATTGTTCTCCCAGCTGATGAATTTCGAATCTCGAGTAAACAAATTTTCCTAATCTTTCTGTTCAAGCGCCATCTAC”, the binding signal is 0.83 RPM ratio (pull-down/input).
For the sequence “GATGATTGTTCTCCCAGCTGATGAATTCCTAGAGTCGAGTAAACAAATTTTCCTAATCTTTCTGTTCAAGCGCCATCTAC”, the binding signal was 0.82 RPM ratio (pull-down/input).
As to “GATGATTGTTCTCCCAGCTGATGAATTCAAGAGCTCGAGTAAACAAATTTTCCTAATCTTTCTGTTCAAGCGCCATCTAC”, the binding signal was 0.778 RPM ratio (pull-down/input).
Turning to “GATGATTGTTCTCCCAGCTGATGAATTATAGTATTCGAGTAAACAAATTTTCCTAATCTTTCTGTTCAAGCGCCATCTAC”, the binding signal was 1.22 RPM ratio (pull-down/input).
Consider “GATGATTGTTCTCCCAGCTGATGAATTTGGCAGTTCGAGTAAACAAATTTTCCTAATCTTTCTGTTCAAGCGCCATCTAC”, for which the binding signal is 0.918 RPM ratio (pull-down/input).
As for “GATGATTGTTCTCCCAGCTGATGAATTCCCAGGTTCGAGTAAACAAATTTTCCTAATCTTTCTGTTCAAGCGCCATCTAC”, the figure is 0.73 RPM ratio (pull-down/input).
Turning to “GATGATTGTTCTCCCAGCTGATGAATTAACGCGCTCGAGTAAACAAATTTTCCTAATCTTTCTGTTCAAGCGCCATCTAC”, the binding signal is 0.91 RPM ratio (pull-down/input).
Turning to “GATGATTGTTCTCCCAGCTGATGAATTCCGATAGTCGAGTAAACAAATTTTCCTAATCTTTCTGTTCAAGCGCCATCTAC”, the binding signal is 0.844 RPM ratio (pull-down/input).
Turning to “GATGATTGTTCTCCCAGCTGATGAATTAGTAGTCTCGAGTAAACAAATTTTCCTAATCTTTCTGTTCAAGCGCCATCTAC”, the binding signal is 0.952 RPM ratio (pull-down/input).
For “GATGATTGTTCTCCCAGCTGATGAATTGGCGTCATCGAGTAAACAAATTTTCCTAATCTTTCTGTTCAAGCGCCATCTAC” the value was 1.05 RPM ratio (pull-down/input); for “GATGATTGTTCTCCCAGCTGATGAATTCGCTCCTTCGAGTAAACAAATTTTCCTAATCTTTCTGTTCAAGCGCCATCTAC”, 0.795 RPM ratio (pull-down/input); for “GATGATTGTTCTCCCAGCTGATGAATTAAGTCTGTCGAGTAAACAAATTTTCCTAATCTTTCTGTTCAAGCGCCATCTAC”, 0.78 RPM ratio (pull-down/input).
For “GATGATTGTTCTCCCAGCTGATGAATTGTGCGTGTCGAGTAAACAAATTTTCCTAATCTTTCTGTTCAAGCGCCATCTAC”, the binding signal was 1.08 RPM ratio (pull-down/input).
As to “GATGATTGTTCTCCCAGCTGATGAATTGAACTAGTCGAGTAAACAAATTTTCCTAATCTTTCTGTTCAAGCGCCATCTAC”, the binding signal is 0.755 RPM ratio (pull-down/input).
“GATGATTGTTCTCCCAGCTGATGAATTAGCAAGCTCGAGTAAACAAATTTTCCTAATCTTTCTGTTCAAGCGCCATCTAC”: the binding signal is 0.877 RPM ratio (pull-down/input).
Take “GATGATTGTTCTCCCAGCTGATGAATTATTGAAGTCGAGTAAACAAATTTTCCTAATCTTTCTGTTCAAGCGCCATCTAC”: the binding signal is 0.999 RPM ratio (pull-down/input).
“GATGATTGTTCTCCCAGCTGATGAATTGGTTCTCTCGAGTAAACAAATTTTCCTAATCTTTCTGTTCAAGCGCCATCTAC”: the binding signal is 0.911 RPM ratio (pull-down/input).
With “GATGATTGTTCTCCCAGCTGATGAATTCTTGGTGTCGAGTAAACAAATTTTCCTAATCTTTCTGTTCAAGCGCCATCTAC”, the binding signal was 0.919 RPM ratio (pull-down/input).
With “GATGATTGTTCTCCCAGCTGATGAATTAGATTATTCGAGTAAACAAATTTTCCTAATCTTTCTGTTCAAGCGCCATCTAC”, the binding signal was 0.962 RPM ratio (pull-down/input).
For “GATGATTGTTCTCCCAGCTGATGAATTCTACATTTCGAGTAAACAAATTTTCCTAATCTTTCTGTTCAAGCGCCATCTAC”, the binding signal was 0.931 RPM ratio (pull-down/input).
With “GATGATTGTTCTCCCAGCTGATGAATTTGCTCTGTCGAGTAAACAAATTTTCCTAATCTTTCTGTTCAAGCGCCATCTAC”, the binding signal is 0.957 RPM ratio (pull-down/input).
For “GATGATTGTTCTCCCAGCTGATGAATTAGGTCGTTCGAGTAAACAAATTTTCCTAATCTTTCTGTTCAAGCGCCATCTAC” the value was 0.944 RPM ratio (pull-down/input).

These data come from paper PMC12820563, “FoxP3 forms a head-to-head dimer in vivo and stabilizes its multimerization on adjacent microsatellites”.
